Measurements as given in publication PMC6172828.
Numbering of substitutions follows the chain as printed. These are yes or no findings as the source states them, for the method shown. Binding seen in cells or lysates may run through a third protein. Some binding calls cover weakened binding; strength is not graded here. Where a sequence is shown, tags or fusion partners need not be part of it.

The chains behind the UniProt entries cited, without tags or fusion partners.
UniProt Q9Z148: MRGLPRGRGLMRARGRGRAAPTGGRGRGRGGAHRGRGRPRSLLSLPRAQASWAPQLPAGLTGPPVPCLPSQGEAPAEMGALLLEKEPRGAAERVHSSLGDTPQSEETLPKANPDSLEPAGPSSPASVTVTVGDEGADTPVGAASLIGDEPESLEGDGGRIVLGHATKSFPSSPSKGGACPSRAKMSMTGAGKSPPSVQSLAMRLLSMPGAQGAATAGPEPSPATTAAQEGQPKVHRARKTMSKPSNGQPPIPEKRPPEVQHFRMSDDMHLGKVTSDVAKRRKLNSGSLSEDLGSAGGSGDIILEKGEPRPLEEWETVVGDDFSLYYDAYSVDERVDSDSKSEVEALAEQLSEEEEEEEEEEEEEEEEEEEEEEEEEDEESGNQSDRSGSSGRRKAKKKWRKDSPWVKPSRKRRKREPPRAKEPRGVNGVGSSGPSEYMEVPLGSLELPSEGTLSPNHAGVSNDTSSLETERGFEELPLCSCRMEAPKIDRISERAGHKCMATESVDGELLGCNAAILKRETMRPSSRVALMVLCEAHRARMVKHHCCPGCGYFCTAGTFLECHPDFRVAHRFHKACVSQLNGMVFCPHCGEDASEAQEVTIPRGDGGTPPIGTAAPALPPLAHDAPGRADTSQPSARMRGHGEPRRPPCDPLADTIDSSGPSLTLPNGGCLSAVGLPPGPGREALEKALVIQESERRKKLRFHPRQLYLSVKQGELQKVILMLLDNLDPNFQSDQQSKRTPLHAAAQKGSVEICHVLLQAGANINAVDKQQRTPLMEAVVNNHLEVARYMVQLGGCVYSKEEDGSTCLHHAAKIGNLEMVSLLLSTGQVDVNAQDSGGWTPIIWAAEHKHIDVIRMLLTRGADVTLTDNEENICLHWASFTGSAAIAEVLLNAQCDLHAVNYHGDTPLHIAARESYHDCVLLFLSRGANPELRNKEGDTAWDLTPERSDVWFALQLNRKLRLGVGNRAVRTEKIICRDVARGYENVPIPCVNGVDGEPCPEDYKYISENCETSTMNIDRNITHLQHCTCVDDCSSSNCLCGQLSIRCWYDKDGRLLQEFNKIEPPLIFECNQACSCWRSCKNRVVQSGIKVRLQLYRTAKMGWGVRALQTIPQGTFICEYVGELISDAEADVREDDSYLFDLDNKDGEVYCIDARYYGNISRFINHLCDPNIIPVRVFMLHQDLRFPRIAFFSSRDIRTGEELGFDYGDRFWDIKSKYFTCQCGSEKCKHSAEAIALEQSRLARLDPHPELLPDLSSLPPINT

B1: M-phase phosphoprotein 8 (MPP8), endogenous in mESCs (protein, UniProt Q3TYA6 1-858)
chain: MAAAAEEGMSAAALVMSVPDSIGRSPESEGVGAGDEEKDAATKGTVAVGDSEEDGEDVFEVERILDMKCEGGKNLYKVRWKGYTSEDDTWEPEVHLEDCKEVLLEFRKKLAENKAKAVRKDIQRLSLNNDIFEADSDSDQQSDTKEDISPRKKKKKIKCKEETSPEDLRKKRTKMGKLKDKFKTELESTSEIIGFDVKTKKRIWEVKEELKDSKKPKKDEIKETKELKKANKRAEVRDLKIKIREDVKENRKTKKERYIESPLESESPNDSLILEDDSEDFISDNREENQNVRSVRDKTAQETVQEGIFEKHLDDLISIEEDAGTRVRRKKTKPRKFEEPKEIKKLESTNAFLERRAIPKKQRNQDKGISNLELNKLPSPVFAQTLKSSRLSGEEKSLKSPDLAEEEKEKKNEPKGKYQKRYDLDKEEKARKEPKVLKSFKEIRNAFDLFKKTTEEKNDVLENNSKREEISLDSKIMNDNKTKDKCSLKEKRNTRDETDTWAYIAAEGDQEVSDSVCQTDETSDGRQPVLSLGMDLQLEWMKLEDFQKHLDGEDEPFITTNRIPNNLLRDAVKNGDYIAVKVALNSNEEYNLDQEDSTGMTLVMLAAAGGQDDLLRLLITKGAKVNGRQKNGTTALIHAAEKNFLTTVAILLEAGAFVNVQQSNGETALMKACKRGNSDIVRLVIECGADCNILSKHQNSALYFAKQCNNVLVYELLKSHLETLSRVAEETIRDYFESRLALLEPVFPIACHRLCEGPDFSTDFNYMPPQNMPEGSGVLLFIFHANFLGKDVIARLCGPCSVQAVVLNDKFQLPVFLDSHFVYSFSPVAGPNKLFIRLTEAPFAKVKLLIGAYRVQLQ

Experiments:
[1] = target: T1, 3xFLAG-tagged ATF7IP WT (expressed in HEK293T cells) (mouse) (UniProt Q7TT18); assay: co-IP; HEK293T cells co-transfected with G9a or GLP plus 3xFLAG-ATF7IP WT, K16R or Δ(1–16); anti-FLAG M2 agarose; western blot
T1 sequence: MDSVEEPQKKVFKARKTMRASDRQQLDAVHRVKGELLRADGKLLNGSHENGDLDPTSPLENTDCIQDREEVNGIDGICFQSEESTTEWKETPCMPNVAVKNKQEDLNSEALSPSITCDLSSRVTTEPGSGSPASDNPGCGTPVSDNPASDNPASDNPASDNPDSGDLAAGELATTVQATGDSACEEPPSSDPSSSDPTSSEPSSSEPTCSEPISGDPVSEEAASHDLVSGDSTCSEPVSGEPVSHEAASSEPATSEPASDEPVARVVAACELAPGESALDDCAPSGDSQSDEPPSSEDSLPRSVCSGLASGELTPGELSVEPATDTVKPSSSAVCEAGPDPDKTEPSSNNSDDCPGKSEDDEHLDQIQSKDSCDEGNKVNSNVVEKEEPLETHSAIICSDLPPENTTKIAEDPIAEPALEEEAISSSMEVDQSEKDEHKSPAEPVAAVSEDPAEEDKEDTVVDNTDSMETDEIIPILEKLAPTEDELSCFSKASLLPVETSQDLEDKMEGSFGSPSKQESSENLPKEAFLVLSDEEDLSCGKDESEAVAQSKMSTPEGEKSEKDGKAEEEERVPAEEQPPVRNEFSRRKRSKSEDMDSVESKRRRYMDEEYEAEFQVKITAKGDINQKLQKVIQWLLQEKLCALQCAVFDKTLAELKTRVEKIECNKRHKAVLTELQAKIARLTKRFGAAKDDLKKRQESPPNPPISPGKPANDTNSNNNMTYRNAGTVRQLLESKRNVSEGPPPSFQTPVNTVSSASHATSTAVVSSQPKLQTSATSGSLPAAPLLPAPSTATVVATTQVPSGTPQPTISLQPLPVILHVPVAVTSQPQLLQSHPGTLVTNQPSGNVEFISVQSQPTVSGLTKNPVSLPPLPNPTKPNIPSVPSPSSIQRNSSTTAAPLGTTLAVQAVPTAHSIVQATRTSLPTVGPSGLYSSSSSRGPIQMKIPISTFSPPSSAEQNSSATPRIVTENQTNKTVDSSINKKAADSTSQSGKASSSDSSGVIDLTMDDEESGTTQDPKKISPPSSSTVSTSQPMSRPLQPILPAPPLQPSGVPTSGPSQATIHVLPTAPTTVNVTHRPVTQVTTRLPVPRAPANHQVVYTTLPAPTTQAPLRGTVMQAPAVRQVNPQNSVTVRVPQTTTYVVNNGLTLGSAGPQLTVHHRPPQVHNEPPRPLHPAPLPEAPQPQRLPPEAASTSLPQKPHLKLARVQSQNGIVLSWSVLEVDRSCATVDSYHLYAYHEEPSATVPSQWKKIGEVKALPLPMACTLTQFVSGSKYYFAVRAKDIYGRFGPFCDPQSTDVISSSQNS

[2] = target: T2, 3xFLAG-ATF7IP K16R mutant (stably expressed in Atf7ip KO mESCs) (mouse) (UniProt Q7TT18); assay: co-IP; Atf7ip KO mESCs rescued with 3xFLAG-ATF7IP WT, K16R or Δ(1–16); anti-FLAG M2 beads; endogenous partners detected by western blot
T2 sequence: T1 sequence with K16R

Molecule	binding [1]	binding [2]
G9a (co-transfected into HEK293T cells) (from UniProt Q9Z148 1-1263) (enzyme)	binds	–
B1	–	no binding
